≈ marks a conversion by molar mass, not a printed value. Read-outs that look alike come from different tables or passages of the source.
Legend:
[1] = system: Fusarium moniliforme (Fm); test: Growth inhibition assay of fungal pathogens, Fm; format: cell-based; conditions: Fusarium verticillioides, 48 h, read-out: Concentration at 90% Inhibition Fm
Method: (§1) Compounds of the present invention were evaluated in a growth inhibition assay to determine the ability to control the growth of fungal pathogens, such as Botrtyis cinerea (Bc), Collectotrichum graminicola (Cg), Diplodia maydis (Dm), Fusarium moniliforme (Fm), Fusarium virguliforme (Fv), Phytophthora capsici (Pc), Rhizoctonia solani (Rs), and Septoria tritici (St).
(§2) Compounds to be tested were dissolved in DMSO at 2.5 mg/ml to produce compound stock solutions (“stocks”). Stocks were diluted with DMSO by a five-fold dilution in a 96-well stock plate, and two sets of final concentrations of 50, 10, and 2 ppm or 2, 0.4, and 0.08 ppm were obtained in vitro. A set of positive controls was also prepared, with various concentrations of Soraphen (2, 0.4, and 0.08 ppm), Metalaxyl (1.1, 0.22, and 0.04 ppm), and Metconazole (2, 0.4, and 0.08 ppm or 0.2, 0.04, and 0.008 ppm) after the five-fold dilutions. Negative controls on each plate included 2% DMSO, water, and a blank (media+2% DMSO).
(§3) Fungal spores were isolated from previously sub-cultured plates of Botrtyis cinerea (Bc), Collectotrichum graminicola (Cg), Diplodia maydis (Dm), Fusarium moniliforme (Fm), Fusarium virguliforme (Fv), Phytophthora capsici (Pc), and Septoria tritici (St). The isolated spores were diluted to individual concentrations with a 17% V8 liquid media. For Rhizoctonia solani (Rs) and Pythium irregulare, 1.5 mm mycelial plugs were used in place of spores and/4 Potato Dextrose Broth (PDB) was used for dilution. The spore concentrations and plug sizes were based on growth curves generated at 48 hours for each pathogen.
(§4) In a second 96-well plate, the spores or mycelial plugs, media, diluted compound solutions, and controls were combined. Once the compound was added, a true final concentration of compound in each well was measured by an OD600 reading, which adjusted for any compound precipitation that might have occurred in the well. Plate readings were repeated at both 24 and 48 hours. The blank negative control was used as a background subtraction. Additional visual ratings were performed at both 24 and 48 hours for checking on precipitation and confirming efficacy. Visual and OD600 ratings of the compounds at 48 hours were compared to the 2% DMSO negative control, and the percent of pathogen growth inhibition was determined based on those values.

C. krusei = test: Antifungal Activity Assay (broth microtiter MIC), C. krusei; format: cell-based, Candida krusei; conditions: Pichia kudriavzevii, ATCC6258, 48 h
Method: (§5) Compounds of the present invention were evaluated in an Antifungal Activity Assay. An exemplary procedure for the assay, which measures the susceptibility of various Candida species to antifungal compounds, follows. Compounds to be tested (including fluconazole and amphotericin B) were dissolved in DMSO to obtain a solution having a concentration of 1 mg/mL. These stock solutions were sterile filtered using a 0.22 um nylon syringe filter, then diluted in sterile water to achieve a final concentration of 128 μg/mL.
(§6) All species were grown from frozen stock by directly plating on to freshly prepared Sabouraud Dextrose agar (BD, Difco) and incubated overnight in ambient air at 35° C. for 24 h. A direct suspension was prepared in RPMI 1640+MOPS (Lonza, Biowhittaker) by taking individual colonies from the overnight cultures using sterile swabs soaked in sterile saline. The concentration of the suspension was determined using pre-determined standard curves. These suspensions were then diluted down to 5×10^3 CFU/mL to achieve a final concentration of 2.5×10^3 CFU/mL once added to the microtiter plate as per CLSI guidelines (M27-A3, Vol. 28 No. 14).
(§7) Broth microtiter MIC challenge plates were prepared following CLSI guidelines (M27-A3, Vol. 28 No. 14). The original CLSI guidelines focused on reading Candida MICs after 48 h of incubation. As reading after only 24 h offers a clear advantage of patient care, QC limits are being established for all drugs at 24 h. That being said there are no known interpretive breakpoints for amphotericin B at 24 h and the current fluconazole interpretive breakpoints are based on a 48 h reading. The MICs for the test compounds were recorded at 48 h. All MIC determinations were achieved by visually comparing the growth found in the antibiotic challenged wells to that of the growth control.

C. albicans = test: Antifungal Activity Assay (broth microtiter MIC), C. albicans; format: cell-based; conditions: Candida albicans, ATCC90028, 48 h
Method: as §5, §6, §7

Rhizoctonia solani (Rs) = test: Growth inhibition assay of fungal pathogens, Rs; format: cell-based; conditions: 48 h, read-out: Concentration at 90% Inhibition Rs, Rhizoctonia solani, mycelial plugs, growth inhibition at 48 hours vs 2% DMSO control
Method: as §1, §2
as §3, with “The spore concentrations and plug sizes were based on growth curves generated at 48 hours for each pathogen.” left out
as §4, with “The blank negative control was used as a background subtraction. Additional visual ratings were performed at both 24 and 48 hours for checking on precipitation and confirming efficacy.” left out

Septoria tritici (St) = test: Growth inhibition assay of fungal pathogens, St; format: cell-based; conditions: Zymoseptoria tritici, 48 h
Method: as §1, §2, §3, §4

[2] = system: Collectotrichum graminicola (Cg); test: Growth inhibition assay of fungal pathogens, Cg; format: cell-based; conditions: 48 h
Method: as §1, §2, §3, §4

fungal (fACC2) = fungal (fACC2) (UniProt Q00955); conditions: read-out: fACC2 (in vitro ACC2 Inhibition Assay, IC50), ADP-Glo, 5 nM ACC2, 20 μM ATP, 20 μM acetyl-CoA
Sequence of UniProt Q00955 (Q00955 whole entry): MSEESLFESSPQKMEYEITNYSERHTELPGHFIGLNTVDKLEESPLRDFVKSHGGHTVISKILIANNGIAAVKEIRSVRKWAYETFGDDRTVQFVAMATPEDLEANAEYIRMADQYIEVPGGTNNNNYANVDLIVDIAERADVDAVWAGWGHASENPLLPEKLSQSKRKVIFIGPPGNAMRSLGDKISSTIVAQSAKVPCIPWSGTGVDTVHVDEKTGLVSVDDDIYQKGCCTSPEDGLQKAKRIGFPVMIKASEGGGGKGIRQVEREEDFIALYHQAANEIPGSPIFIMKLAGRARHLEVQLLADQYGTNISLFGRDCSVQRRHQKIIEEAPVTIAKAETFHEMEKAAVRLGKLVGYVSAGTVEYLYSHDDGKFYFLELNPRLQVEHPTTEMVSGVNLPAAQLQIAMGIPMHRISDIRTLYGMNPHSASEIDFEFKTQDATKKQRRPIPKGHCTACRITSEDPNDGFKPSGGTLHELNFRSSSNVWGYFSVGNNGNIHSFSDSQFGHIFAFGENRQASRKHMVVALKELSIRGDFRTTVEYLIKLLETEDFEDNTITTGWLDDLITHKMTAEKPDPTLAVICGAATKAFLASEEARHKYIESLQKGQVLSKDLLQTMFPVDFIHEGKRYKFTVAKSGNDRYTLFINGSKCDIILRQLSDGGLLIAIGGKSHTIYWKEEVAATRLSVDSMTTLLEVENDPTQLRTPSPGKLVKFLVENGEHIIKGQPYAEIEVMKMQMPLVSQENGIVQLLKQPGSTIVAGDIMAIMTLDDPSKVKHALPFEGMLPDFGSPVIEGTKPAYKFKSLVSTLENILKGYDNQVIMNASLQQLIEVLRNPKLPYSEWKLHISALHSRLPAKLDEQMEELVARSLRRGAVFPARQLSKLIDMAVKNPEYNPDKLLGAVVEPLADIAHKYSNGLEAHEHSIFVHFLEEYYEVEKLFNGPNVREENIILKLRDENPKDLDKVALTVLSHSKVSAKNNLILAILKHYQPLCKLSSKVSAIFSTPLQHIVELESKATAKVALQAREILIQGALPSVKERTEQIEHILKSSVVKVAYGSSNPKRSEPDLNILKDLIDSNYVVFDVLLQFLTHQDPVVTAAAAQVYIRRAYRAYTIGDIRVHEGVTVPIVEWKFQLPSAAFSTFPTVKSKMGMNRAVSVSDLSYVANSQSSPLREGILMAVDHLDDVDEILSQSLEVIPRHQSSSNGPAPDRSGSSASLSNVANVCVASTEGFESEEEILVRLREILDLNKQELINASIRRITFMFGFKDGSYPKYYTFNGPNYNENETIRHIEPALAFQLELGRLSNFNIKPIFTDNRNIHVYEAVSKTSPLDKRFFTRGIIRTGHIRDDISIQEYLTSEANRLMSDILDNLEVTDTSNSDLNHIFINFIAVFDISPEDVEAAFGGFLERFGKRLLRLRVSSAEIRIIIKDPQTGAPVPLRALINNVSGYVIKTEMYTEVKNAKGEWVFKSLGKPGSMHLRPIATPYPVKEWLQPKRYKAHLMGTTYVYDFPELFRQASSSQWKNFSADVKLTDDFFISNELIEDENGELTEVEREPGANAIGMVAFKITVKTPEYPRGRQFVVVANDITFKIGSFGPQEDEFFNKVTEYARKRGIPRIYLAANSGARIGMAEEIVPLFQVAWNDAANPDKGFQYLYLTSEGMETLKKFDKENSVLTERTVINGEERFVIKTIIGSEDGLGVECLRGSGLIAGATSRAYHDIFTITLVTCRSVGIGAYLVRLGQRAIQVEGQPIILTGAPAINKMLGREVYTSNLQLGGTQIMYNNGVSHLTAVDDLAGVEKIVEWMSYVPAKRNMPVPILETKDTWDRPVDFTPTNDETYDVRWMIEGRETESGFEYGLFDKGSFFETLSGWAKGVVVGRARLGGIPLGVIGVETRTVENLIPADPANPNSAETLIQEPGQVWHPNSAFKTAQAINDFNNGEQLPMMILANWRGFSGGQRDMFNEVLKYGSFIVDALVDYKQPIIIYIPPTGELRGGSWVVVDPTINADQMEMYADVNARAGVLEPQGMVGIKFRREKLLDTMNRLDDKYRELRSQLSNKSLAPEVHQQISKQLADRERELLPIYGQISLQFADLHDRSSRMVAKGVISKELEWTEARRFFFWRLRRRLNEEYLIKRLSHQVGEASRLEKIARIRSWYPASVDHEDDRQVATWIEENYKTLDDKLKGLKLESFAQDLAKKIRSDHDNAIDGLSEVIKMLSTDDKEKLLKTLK

[3] = system: Fusarium virguliforme (Fv); test: Growth inhibition assay of fungal pathogens, Fv; format: cell-based; conditions: 48 h
Method: as §1, §2, §3, §4

C. parapsilosis = test: Antifungal Activity Assay (broth microtiter MIC), C. parapsilosis; format: cell-based, Candida parapsilosis; conditions: Lodderomyces parapsilosis, ATCC22019, 48 h
Method: as §5, §6, §7

Diplodia maydis (Dm) = test: Growth inhibition assay of fungal pathogens, Dm; format: cell-based; conditions: Stenocarpella maydis, 48 h
Method: as §1, §2, §3, §4

[4] = system: Phytophthora capsici (Pc); test: Growth inhibition assay of fungal pathogens, Pc; format: cell-based; conditions: 48 h
Method: as §1, §2, §3, §4

human (hACC2) = human (hACC2) (Homo sapiens, UniProt O00763); test: In vitro ACC inhibition assay (ADP-Glo), hACC2; format: biochemical; conditions: 5 nM ACC2, 20 μM ATP, 20 μM acetyl-CoA
Sequence of UniProt O00763 (O00763 whole entry): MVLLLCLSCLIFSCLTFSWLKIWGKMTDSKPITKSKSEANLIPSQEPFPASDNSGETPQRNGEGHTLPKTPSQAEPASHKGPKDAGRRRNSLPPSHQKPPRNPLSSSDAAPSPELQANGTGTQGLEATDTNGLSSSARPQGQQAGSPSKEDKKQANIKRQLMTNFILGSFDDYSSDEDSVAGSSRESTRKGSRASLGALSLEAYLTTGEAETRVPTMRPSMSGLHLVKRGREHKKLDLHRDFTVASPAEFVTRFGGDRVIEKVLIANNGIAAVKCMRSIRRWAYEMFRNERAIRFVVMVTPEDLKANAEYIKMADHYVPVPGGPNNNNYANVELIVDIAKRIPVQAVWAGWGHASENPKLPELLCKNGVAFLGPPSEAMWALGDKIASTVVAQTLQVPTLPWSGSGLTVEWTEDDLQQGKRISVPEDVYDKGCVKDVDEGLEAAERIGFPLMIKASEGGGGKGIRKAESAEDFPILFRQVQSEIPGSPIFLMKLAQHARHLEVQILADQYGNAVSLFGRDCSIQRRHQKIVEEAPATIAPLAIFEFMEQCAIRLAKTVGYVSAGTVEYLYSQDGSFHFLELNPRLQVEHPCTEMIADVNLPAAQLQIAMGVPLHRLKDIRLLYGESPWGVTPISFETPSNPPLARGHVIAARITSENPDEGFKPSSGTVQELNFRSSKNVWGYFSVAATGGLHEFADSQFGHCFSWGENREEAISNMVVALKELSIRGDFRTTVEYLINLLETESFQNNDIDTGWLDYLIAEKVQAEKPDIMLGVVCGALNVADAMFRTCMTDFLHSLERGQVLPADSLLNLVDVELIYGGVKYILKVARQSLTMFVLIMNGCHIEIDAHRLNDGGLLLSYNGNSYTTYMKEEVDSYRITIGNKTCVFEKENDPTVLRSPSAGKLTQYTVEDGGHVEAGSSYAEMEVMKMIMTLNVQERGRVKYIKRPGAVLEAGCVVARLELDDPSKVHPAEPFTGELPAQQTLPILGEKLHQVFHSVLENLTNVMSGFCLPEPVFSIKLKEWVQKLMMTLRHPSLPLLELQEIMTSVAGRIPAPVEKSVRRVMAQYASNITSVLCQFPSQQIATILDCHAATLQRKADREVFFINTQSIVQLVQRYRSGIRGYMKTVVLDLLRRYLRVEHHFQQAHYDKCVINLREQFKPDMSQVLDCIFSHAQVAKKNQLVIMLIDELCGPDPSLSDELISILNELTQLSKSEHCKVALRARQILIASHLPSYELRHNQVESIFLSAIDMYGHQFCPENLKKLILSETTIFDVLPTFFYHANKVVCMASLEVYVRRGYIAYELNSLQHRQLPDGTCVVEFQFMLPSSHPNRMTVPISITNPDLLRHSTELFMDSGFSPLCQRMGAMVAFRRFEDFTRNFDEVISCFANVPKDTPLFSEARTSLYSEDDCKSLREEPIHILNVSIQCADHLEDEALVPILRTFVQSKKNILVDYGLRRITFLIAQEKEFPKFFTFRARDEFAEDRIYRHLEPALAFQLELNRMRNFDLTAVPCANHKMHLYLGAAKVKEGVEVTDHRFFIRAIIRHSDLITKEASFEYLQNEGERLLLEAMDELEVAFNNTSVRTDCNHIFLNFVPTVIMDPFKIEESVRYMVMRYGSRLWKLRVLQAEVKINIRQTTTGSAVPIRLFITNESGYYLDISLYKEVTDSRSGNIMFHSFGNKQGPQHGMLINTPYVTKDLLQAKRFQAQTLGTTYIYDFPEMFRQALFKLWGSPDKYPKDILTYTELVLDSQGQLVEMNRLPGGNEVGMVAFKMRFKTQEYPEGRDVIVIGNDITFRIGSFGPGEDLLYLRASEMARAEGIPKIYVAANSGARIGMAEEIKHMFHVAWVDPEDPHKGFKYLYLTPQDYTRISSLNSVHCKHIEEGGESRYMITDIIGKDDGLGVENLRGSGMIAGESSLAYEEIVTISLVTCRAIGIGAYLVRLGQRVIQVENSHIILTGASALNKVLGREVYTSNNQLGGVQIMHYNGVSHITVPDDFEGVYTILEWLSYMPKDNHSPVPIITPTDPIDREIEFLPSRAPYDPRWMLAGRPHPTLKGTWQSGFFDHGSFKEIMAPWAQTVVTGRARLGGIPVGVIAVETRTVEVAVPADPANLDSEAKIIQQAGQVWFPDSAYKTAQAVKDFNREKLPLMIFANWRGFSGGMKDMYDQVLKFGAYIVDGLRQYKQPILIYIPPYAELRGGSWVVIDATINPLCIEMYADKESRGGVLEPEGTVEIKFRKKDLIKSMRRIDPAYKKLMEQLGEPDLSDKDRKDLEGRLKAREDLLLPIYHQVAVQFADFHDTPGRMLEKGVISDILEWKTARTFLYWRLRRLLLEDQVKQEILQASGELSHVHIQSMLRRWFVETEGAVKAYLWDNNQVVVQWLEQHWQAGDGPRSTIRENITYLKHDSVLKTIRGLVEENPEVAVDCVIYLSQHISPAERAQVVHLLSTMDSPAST
Method: The detailed procedure is as follows. […] 10 μL ADP glo reagent was added. […] 20 μL kinase detection reagent was added.

Botrtyis cinerea (Bc) = test: Growth inhibition assay of fungal pathogens, Bc; format: cell-based; conditions: 48 h
Method: as §1, §2, §3, §4

## COc1ccc(F)cc1[C@@H](O)Cn1c(=O)n(C(C)(C)C(=O)NC(C)C)c(=O)c2c(C)c(-n3nccn3)sc21 [Compound I-180]
[1]
  IC90: 0.08 µg/mL (≈ 0.147 µM)
C. krusei; read-out: MIC, C. krusei ATCC 6258, Table 3a, 3 replicates, MIC recorded at 48 h
  MIC: 0.06 to 0.24 µg/mL (≈ 0.11 to 0.441 µM)
C. krusei; read-out: MIC, C. krusei ATCC 6258, Table 3b (additional results), 3 replicates, MIC recorded at 48 h
  MIC: 0.25 to 1 µg/mL (≈ 0.459 to 1.84 µM)
C. albicans; read-out: MIC, C. albicans ATCC 90028, Table 3a, 3 replicates, MIC recorded at 48 h
  MIC: 0.06 to 0.24 µg/mL (≈ 0.11 to 0.441 µM)
C. albicans; read-out: MIC, C. albicans ATCC 90028, Table 3b (additional results), 3 replicates, MIC recorded at 48 h
  MIC: 1.01 to 2 µg/mL (≈ 1.85 to 3.67 µM)
Rhizoctonia solani (Rs)
  IC90: 0.08 µg/mL (≈ 0.147 µM)
Septoria tritici (St); read-out: Concentration at 90% Inhibition St, Septoria tritici, growth inhibition at 48 hours vs 2% DMSO control
  IC90: > 50 µg/mL
[2]; read-out: Concentration at 90% Inhibition Cg, Collectotrichum graminicola, growth inhibition at 48 hours vs 2% DMSO control
  IC90: 0.4 µg/mL (≈ 0.734 µM)
Fungal (fACC2); Table 2a
  IC50: 0.4 to 1 nM
Fungal (fACC2); Table 2b, additional results
  IC50: 0.3 to 1 nM
[3]; read-out: Concentration at 90% Inhibition Fv, Fusarium virguliforme, growth inhibition at 48 hours vs 2% DMSO control
  IC90: 0.08 µg/mL (≈ 0.147 µM)
C. parapsilosis; read-out: MIC, C. parapsilosis ATCC 22019, Table 3a, 3 replicates, MIC recorded at 48 h
  MIC: 0.25 to 1 µg/mL (≈ 0.459 to 1.84 µM)
C. parapsilosis; read-out: MIC, C. parapsilosis ATCC 22019, Table 3b (additional results), 3 replicates, MIC recorded at 48 h
  MIC: 1.01 to 2 µg/mL (≈ 1.85 to 3.67 µM)
Diplodia maydis (Dm); read-out: Concentration at 90% Inhibition Dm, Diplodia maydis, growth inhibition at 48 hours vs 2% DMSO control
  IC90: 0.4 µg/mL (≈ 0.734 µM)
[4]; read-out: Concentration at 90% Inhibition Pc, Phytophthora capsici, growth inhibition at 48 hours vs 2% DMSO control
  IC90: 10 µg/mL (≈ 18.4 µM)
Human (hACC2); Table 2a
  IC50: 5 to 10 nM
Human (hACC2); Table 2b, additional results
  IC50: 5 to 10 nM
Botrtyis cinerea (Bc); read-out: Concentration at 90% Inhibition Bc, Botrtyis cinerea, growth inhibition at 48 hours vs 2% DMSO control
  IC90: 0.4 µg/mL (≈ 0.734 µM)

## COc1ccc(F)cc1[C@H](Cn1c(=O)n([C@@H](C)C(=O)N2CCCC2)c(=O)c2c(C)c(-n3nccn3)sc21)OC(C)C [Compound I-39, 1-((R)-2-(5-fluoro-2-methoxyphenyl)-2-isopropoxyethyl)-5-methyl-3-((S)-1-oxo-1-(pyrrolidin-1-yl)propan-2-yl)-6-(2H-1,2,3-triazol-2-yl)thieno[2,3-d]pyrimidine-2,4(1H,3H)-dione]
[1]; Fusarium moniliforme, growth inhibition at 48 hours vs 2% DMSO control
  IC90: 0.08 µg/mL (≈ 0.137 µM)
[1]; Fusarium moniliforme, growth inhibition vs 2% DMSO control at 48 hours
  IC90: 0.08 µg/mL (≈ 0.137 µM)
C. krusei; Table 3a, ATCC 6258, 3 replicates, MIC recorded at 48 h, read-out: MIC, C. krusei ATCC 6258
  MIC: 0.25 to 1 µg/mL (≈ 0.428 to 1.71 µM)
C. krusei; Table 3b (additional results), ATCC 6258, 3 replicates, MIC recorded at 48 h, read-out: MIC, C. krusei ATCC 6258
  MIC: 0.25 to 1 µg/mL (≈ 0.428 to 1.71 µM)
C. albicans; Table 3a, ATCC 90028, 3 replicates, MIC recorded at 48 h, read-out: MIC, C. albicans ATCC 90028
  MIC: 0.25 to 1 µg/mL (≈ 0.428 to 1.71 µM)
C. albicans; Table 3b (additional results), ATCC 90028, 3 replicates, MIC recorded at 48 h, read-out: MIC, C. albicans ATCC 90028
  MIC: 0.25 to 1 µg/mL (≈ 0.428 to 1.71 µM)
Septoria tritici (St); Septoria tritici, growth inhibition at 48 hours vs 2% DMSO control, read-out: Concentration at 90% Inhibition St
  IC90: > 50 µg/mL
Septoria tritici (St); Septoria tritici, growth inhibition vs 2% DMSO control at 48 hours, read-out: Concentration at 90% Inhibition St
  IC90: > 50 µg/mL
[2]; Collectotrichum graminicola, growth inhibition at 48 hours vs 2% DMSO control, read-out: Concentration at 90% Inhibition Cg
  IC90: 0.08 µg/mL (≈ 0.137 µM)
[2]; Collectotrichum graminicola, growth inhibition vs 2% DMSO control at 48 hours, read-out: Concentration at 90% Inhibition Cg
  IC90: 0.08 µg/mL (≈ 0.137 µM)
Fungal (fACC2); Table 2a
  IC50: 1 to 5 nM
Fungal (fACC2); Table 2b, additional results
  IC50: 1 to 5 nM
[3]; growth inhibition at 48 hours vs 2% DMSO control, read-out: Concentration at 90% Inhibition Fv
  IC90: 0.08 µg/mL (≈ 0.137 µM)
[3]; growth inhibition vs 2% DMSO control at 48 hours, read-out: Concentration at 90% Inhibition Fv
  IC90: 0.08 µg/mL (≈ 0.137 µM)
C. parapsilosis; Table 3a, ATCC 22019, 3 replicates, MIC recorded at 48 h, read-out: MIC, C. parapsilosis ATCC 22019
  MIC: 0.25 to 1 µg/mL (≈ 0.428 to 1.71 µM)
C. parapsilosis; Table 3b (additional results), ATCC 22019, 3 replicates, MIC recorded at 48 h, read-out: MIC, C. parapsilosis ATCC 22019
  MIC: 1.01 to 2 µg/mL (≈ 1.73 to 3.42 µM)
Diplodia maydis (Dm); Diplodia maydis, growth inhibition at 48 hours vs 2% DMSO control, read-out: Concentration at 90% Inhibition Dm
  IC90: 0.08 µg/mL (≈ 0.137 µM)
Diplodia maydis (Dm); Diplodia maydis, growth inhibition vs 2% DMSO control at 48 hours, read-out: Concentration at 90% Inhibition Dm
  IC90: 0.08 µg/mL (≈ 0.137 µM)
[4]; growth inhibition at 48 hours vs 2% DMSO control, read-out: Concentration at 90% Inhibition Pc
  IC90: 10 µg/mL (≈ 17.1 µM)
[4]; growth inhibition vs 2% DMSO control at 48 hours, read-out: Concentration at 90% Inhibition Pc
  IC90: > 50 µg/mL
Botrtyis cinerea (Bc); Botrtyis cinerea, growth inhibition at 48 hours vs 2% DMSO control, read-out: Concentration at 90% Inhibition Bc
  IC90: 0.4 µg/mL (≈ 0.684 µM)
Botrtyis cinerea (Bc); Botrtyis cinerea, growth inhibition vs 2% DMSO control at 48 hours, read-out: Concentration at 90% Inhibition Bc
  IC90: 0.4 µg/mL (≈ 0.684 µM)

— US10800791B2, “Triazole ACC inhibitors and uses thereof” (Gilead Apollo, LLC, priority 2015, dated 2020)
